Measured values from patent US10299477B2 (priority 2015, dated 2019).

What was measured:
Type in all cases: in vivo
[1] = test system: Puccinia recondita; test: Test Example E: Brown rust on wheat; settings: in vivo
From the text: [Test Example E] Brown Rust on Wheat

[2] = test system: Botrytis cinerea; test: Test Example B: Gray mold on tomato; settings: in vivo
From the text: [Test Example B] Gray Mold on Tomato
Seeds of a test plant (tomato variety: Oogata Fukuju) were planted followed by cultivating until three to five first leaves (true leaves) appeared.

[3] = test system: Blumeria graminis f sp. hordei; test: Test Example D: Powdery mildew on barley; settings: in vivo
From the text: [Test Example D] Powdery Mildew on Barley
After the sprayed dilutions were dried, conidia of Blumeria graminis f sp. hordei were inoculated to the plants by shaking off.

[4] = test system: Alternaia brassicicola; test: Test Example C: Alternaria sooty spot on cabbage; settings: in vivo
From the text: [Test Example C] Alternaria Sooty Spot on Cabbage
Seeds of a test plant (cabbage variety: Shikidori) were planted followed by cultivating until the cotyledons extended.

[5] = test system: Plasmopara viticola; test: Test Example G: Downy mildew on vine; settings: 250 ppm, sprayed 2.5 ml/pot before inoculation; evaluated 7-10 days after inoculation
From the text: [Test Example G] Downy Mildew on Vine
Seeds of a test plant (grape variety: Neomuscat) were planted followed by cultivating until three to four first leaves appeared. […] After the sprayed dilutions were dried, a zoosporangia suspension (1-2×10^4 zoosporangia/ml) of Plasmopara viticola was inoculated to the plants by spraying.

Cn1c(-c2c(F)cc(Br)cc2F)c(-c2cc(F)ccc2Cl)cc(Cl)c1=O [Compound 681]
Test E (control value class, brown rust on wheat) [1]: H (H shows more than 50% of control values) | Test B (control value class, gray mold on tomato) [2]: H (H shows more than 50% of control values) | Test D (control value class, powdery mildew on barley) [3]: H (H shows more than 50% of control values) | Test C (control value class, Alternaria sooty spot on cabbage) [4]: H (H shows more than 50% of control values) | Test G (control value class, downy mildew on vine) [5]: L (L shows 50% or less of control values)

CCn1c(-c2c(F)cc(F)cc2F)c(-c2cccc(F)c2C)cc(Br)c1=O [Compound 682]
Test E (control value class, brown rust on wheat) [1]: H (H shows more than 50% of control values) | Test B (control value class, gray mold on tomato) [2]: H (H shows more than 50% of control values) | Test D (control value class, powdery mildew on barley) [3]: H (H shows more than 50% of control values) | Test C (control value class, Alternaria sooty spot on cabbage) [4]: H (H shows more than 50% of control values) | Test G (control value class, downy mildew on vine) [5]: L (L shows 50% or less of control values)

CCn1c(-c2c(F)cc(F)cc2F)c(-c2ccccc2Cl)cc(Br)c1=O [Compound 683]
Test E (control value class, brown rust on wheat) [1]: H (H shows more than 50% of control values) | Test B (control value class, gray mold on tomato) [2]: H (H shows more than 50% of control values) | Test D (control value class, powdery mildew on barley) [3]: H (H shows more than 50% of control values) | Test C (control value class, Alternaria sooty spot on cabbage) [4]: H (H shows more than 50% of control values) | Test G (control value class, downy mildew on vine) [5]: L (L shows 50% or less of control values)

CCOc1cc(F)c(-c2c(-c3ccccc3Cl)cc(Cl)c(=O)n2CC)c(F)c1 [Compound 684]
Test E (control value class, brown rust on wheat) [1]: H (H shows more than 50% of control values) | Test B (control value class, gray mold on tomato) [2]: H (H shows more than 50% of control values) | Test D (control value class, powdery mildew on barley) [3]: H (H shows more than 50% of control values) | Test C (control value class, Alternaria sooty spot on cabbage) [4]: H (H shows more than 50% of control values) | Test G (control value class, downy mildew on vine) [5]: H (H shows more than 50% of control values)

CCOc1cc(F)c(-c2c(-c3ccccc3Cl)ccc(=O)n2CC)c(F)c1 [Compound 685]
Test E (control value class, brown rust on wheat) [1]: H (H shows more than 50% of control values) | Test B (control value class, gray mold on tomato) [2]: H (H shows more than 50% of control values) | Test D (control value class, powdery mildew on barley) [3]: H (H shows more than 50% of control values) | Test C (control value class, Alternaria sooty spot on cabbage) [4]: H (H shows more than 50% of control values) | Test G (control value class, downy mildew on vine) [5]: H (H shows more than 50% of control values)

CCn1c(-c2c(F)cc(F)cc2F)c(-c2ccccc2Cl)cc(C)c1=O [Compound 687]
Test E (control value class, brown rust on wheat) [1]: H (H shows more than 50% of control values) | Test B (control value class, gray mold on tomato) [2]: H (H shows more than 50% of control values) | Test D (control value class, powdery mildew on barley) [3]: H (H shows more than 50% of control values) | Test C (control value class, Alternaria sooty spot on cabbage) [4]: H (H shows more than 50% of control values) | Test G (control value class, downy mildew on vine) [5]: H (H shows more than 50% of control values)

CCn1c(-c2c(F)cc(F)cc2F)c(-c2cc(F)cc(F)c2Cl)cc(C)c1=O [Compound 689]
Test E (control value class, brown rust on wheat) [1]: H (H shows more than 50% of control values) | Test B (control value class, gray mold on tomato) [2]: H (H shows more than 50% of control values) | Test D (control value class, powdery mildew on barley) [3]: H (H shows more than 50% of control values) | Test C (control value class, Alternaria sooty spot on cabbage) [4]: H (H shows more than 50% of control values) | Test G (control value class, downy mildew on vine) [5]: H (H shows more than 50% of control values)

Cc1cc(F)c(-c2c(-c3cc(F)ccc3Cl)ccc(=O)n2C)c(F)c1 [Compound 690]
Test E (control value class, brown rust on wheat) [1]: H (H shows more than 50% of control values) | Test B (control value class, gray mold on tomato) [2]: H (H shows more than 50% of control values) | Test D (control value class, powdery mildew on barley) [3]: L (L shows 50% or less of control values) | Test C (control value class, Alternaria sooty spot on cabbage) [4]: H (H shows more than 50% of control values) | Test G (control value class, downy mildew on vine) [5]: L (L shows 50% or less of control values)
